This is one part of the list. The full chains were built here from the parent and the listed change. Values near 0.05 are background.
B1: TEV protease; numbered along this chain (parent)
chain: MGESLFKGPRDYNPISSSICHLTNESDGHTTSLYGIGFGPFIITNKHLFRRNNGTLVVQSLHGVFKVKDTTTLQQHLVDGRDMIIIRMPKDFPPFPQKLKFREPQREERICLVTTNFQTKSMSSMVSDTSCTFPSGDGIFWKHWIQTKDGQCGSPLVSTRDGFIVGIHSASNFTNTNNYFTSVPKNFMELLTNQEAQQWVSGWRLNADSVLWGGHKVFMVKPEEPFQPVKEATQL

Variants of: B1
Assay: raw area under fraction-flipped curve 0-4 h after induction (AUC4h, not background-subtracted), DNA-recorder readout of cleavage of the substrate (dimensionless); higher = more cleavage of the substrate by the protease variant
Details: temperature: 34 °C; time window: 0-4 h after rhamnose induction
Experimental: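 In vivo DNA recorder in E. coli TOP10(DE3) ΔrhaA at 34 °C. Each TEVp single-site mutant (parent TEVp 0) is paired with a single-site variant of the 7-mer TEVs (canonical ENLYFQ|S). The substrate sits between flexible linkers in a Bxb1-sfGFP-TEVs-SsrA fusion, so cleavage stabilises Bxb1 and speeds flipping of a recombination array, read by NGS. The value is the raw area under the fraction-flipped curve over 0-4 h after rhamnose induction (AUC4h), with ≥20 reads per time point. It is not background-subtracted; inactive controls average about 0.047.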
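Also: Bxb1 expression induced with 0.2% (w/v) L-rhamnose at OD600 near 0.5, cultures sampled hourly, flipped fraction per protease–substrate barcode pair counted by paired-end Illumina sequencing.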

| Variant | area with substrate ENLYFQA | area with substrate ENLYFQC | area with substrate ENLYFQG | area with substrate ENLYFQH | area with substrate ENLYFQI | area with substrate ENLYFQK | area with substrate ENLYFQM | area with substrate ENLYFQP | area with substrate ENLYFQR | area with substrate ENLYFQS | area with substrate ENLYFQT | area with substrate ENLYFQV | area with substrate ENLYFQW | area with substrate ENLYFQD | area with substrate ENLYFQE | area with substrate ENLYFQF | area with substrate ENLYFQL | area with substrate ENLYFQN | area with substrate ENLYFQY | area with substrate ENLYFQQ |
| --- | --- | --- | --- | --- | --- | --- | --- | --- | --- | --- | --- | --- | --- | --- | --- | --- | --- | --- | --- | --- |
| MGESLFKGPRDYNPISSSICHLTNESDGHTTSLYGIGFGPFIITNKHLFRRNNGTLVVQSLHGVFKVKDTTTLQQHLVDGRDMIIIRMSKDFPPFPQKLKFREPQREERICLVTTNFQTKSMSSMVSDTSCTFPSGDGIFWKHWIQTKDGQCGSPLVSTRDGFIVGIHSASNFTNTNNYFTSVPKNFMELLTNQEAQQWVSGWRLNADSVLWGGHKVFMVKPEEPFQPVKEATQL [P89S] | 0.0904 | 0.0991 | 0.0915 | 0.0761 | 0.0599 | 0.0627 | 0.0909 | 0.0581 | 0.056 | 0.0875 | 0.0536 | 0.0742 | 0.06 |  |  |  |  |  |  |  |
| MGESLFKGPRDYNPISSSICHLTNESDGHTTSLYGIGFGPFIITNKHLFRRNNGTLVVQSLHGVFKVKDTTTLQQHLVDGRDMIIIRMPKDFPPFPQKLKFREPDREERICLVTTNFQTKSMSSMVSDTSCTFPSGDGIFWKHWIQTKDGQCGSPLVSTRDGFIVGIHSASNFTNTNNYFTSVPKNFMELLTNQEAQQWVSGWRLNADSVLWGGHKVFMVKPEEPFQPVKEATQL [Q105D] | 0.0947 | 0.129 | 0.0758 | 0.0761 | 0.0594 | 0.0636 | 0.0487 | 0.0651 | 0.0559 | 0.105 | 0.0827 | 0.0602 | 0.061 | 0.0816 | 0.0239 | 0.0597 | 0.0798 | 0.0686 | 0.0699 |  |
| MGESLFKGPRDYNPISSSICHLTNESDGHTTSLYGIGFGPFIITNKHLFRRNNGTLVVQSLHGVFKVKDTTTLQQHLVDGRDMIIIRMPKDFPPFPQKLKFREPRREERICLVTTNFQTKSMSSMVSDTSCTFPSGDGIFWKHWIQTKDGQCGSPLVSTRDGFIVGIHSASNFTNTNNYFTSVPKNFMELLTNQEAQQWVSGWRLNADSVLWGGHKVFMVKPEEPFQPVKEATQL [Q105R] | 0.0847 | 0.137 | 0.102 |  | 0.0583 | 0.0641 | 0.102 | 0.054 | 0.0671 | 0.104 | 0.0682 | 0.0542 | 0.0612 | 0.0701 |  | 0.081 | 0.0612 | 0.0872 | 0.0853 | 0.0803 |
| MGESLFKGPRDYNPISSSICHLTNESDGHTTSLYGIGFGPFIITNKHLFRRNNGTLVVQSLHGVFKVKDTTTLQQHLVDGRDMIIIRMPKDCPPFPQKLKFREPQREERICLVTTNFQTKSMSSMVSDTSCTFPSGDGIFWKHWIQTKDGQCGSPLVSTRDGFIVGIHSASNFTNTNNYFTSVPKNFMELLTNQEAQQWVSGWRLNADSVLWGGHKVFMVKPEEPFQPVKEATQL [F92C] | 0.0681 | 0.104 | 0.0942 | 0.0792 |  | 0.0659 | 0.0989 | 0.0603 | 0.0725 | 0.0992 | 0.0708 | 0.0653 | 0.0628 | 0.0655 | 0.0856 | 0.084 | 0.0613 | 0.0744 | 0.053 | 0.0777 |
| MGESLFKGPRDYNPISSSICHLTNESDGHTTSLYGIGFGPFIITNKHLFRRNNGTLVVQSLHGVFKVKDTTTLQQHLVDGRDMIIIRMPKDFPPFPQKLKFREPQREARICLVTTNFQTKSMSSMVSDTSCTFPSGDGIFWKHWIQTKDGQCGSPLVSTRDGFIVGIHSASNFTNTNNYFTSVPKNFMELLTNQEAQQWVSGWRLNADSVLWGGHKVFMVKPEEPFQPVKEATQL [E108A] | 0.0545 | 0.0781 | 0.0685 | 0.0464 | 0.0538 |  |  | 0.0593 | 0.046 | 0.0654 | 0.0489 | 0.0559 | 0.0457 |  | 0.0574 | 0.0525 |  | 0.056 | 0.0616 |  |
| MGESLFKGPRDYNPISSSICHLTNESDGHTTSLYGIGFGPFIITNKHLFRRNNGTLVVQSLHGVFKVKDTTTLQQHLVDGRNMIIIRMPKDFPPFPQKLKFREPQREERICLVTTNFQTKSMSSMVSDTSCTFPSGDGIFWKHWIQTKDGQCGSPLVSTRDGFIVGIHSASNFTNTNNYFTSVPKNFMELLTNQEAQQWVSGWRLNADSVLWGGHKVFMVKPEEPFQPVKEATQL [D82N] | 0.0545 |  |  | 0.0512 | 0.0802 | 0.0541 |  |  | 0.0648 | 0.06 | 0.0561 | 0.0586 |  | 0.0651 |  | 0.0616 |  | 0.0666 |  | 0.0491 |
| MGESLFKGPRDYNPISSSICHLTNESDGHTTSLYGIGFGPFIITNKHLFRRNNGTLVVQSLHGVFKVKDTTTLQQHLVDGRKMIIIRMPKDFPPFPQKLKFREPQREERICLVTTNFQTKSMSSMVSDTSCTFPSGDGIFWKHWIQTKDGQCGSPLVSTRDGFIVGIHSASNFTNTNNYFTSVPKNFMELLTNQEAQQWVSGWRLNADSVLWGGHKVFMVKPEEPFQPVKEATQL [D82K] | 0.0629 |  | 0.0641 |  | 0.0656 | 0.0538 |  |  | 0.0627 | 0.0569 | 0.0239 |  | 0.0584 |  |  |  | 0.0453 | 0.0614 |  |  |
| MGESLFKGPRDYNPISSSICHLTNESDGHTTSLYGIGFGPFIITNKHLFRRNNGTLVVQSLHGVFKVKDTTTLQQHLYDGRDMIIIRMPKDFPPFPQKLKFREPQREERICLVTTNFQTKSMSSMVSDTSCTFPSGDGIFWKHWIQTKDGQCGSPLVSTRDGFIVGIHSASNFTNTNNYFTSVPKNFMELLTNQEAQQWVSGWRLNADSVLWGGHKVFMVKPEEPFQPVKEATQL [V78Y] | 0.0857 | 0.0783 | 0.0766 | 0.049 | 0.057 | 0.0578 | 0.0683 |  | 0.06 | 0.0751 | 0.0563 |  | 0.0615 | 0.0627 |  | 0.0578 | 0.0604 |  |  |  |
| MGESLFKGPRDYNPISSSICHLTNESDGHTTSLYGIGFGPFIITNKHLFRRNNGTLVVQSLHGVFKVKDTTTLQQHLVDGRDMIIIRMPWDFPPFPQKLKFREPQREERICLVTTNFQTKSMSSMVSDTSCTFPSGDGIFWKHWIQTKDGQCGSPLVSTRDGFIVGIHSASNFTNTNNYFTSVPKNFMELLTNQEAQQWVSGWRLNADSVLWGGHKVFMVKPEEPFQPVKEATQL [K90W] | 0.119 | 0.116 |  | 0.092 | 0.0538 | 0.067 | 0.0905 | 0.0571 | 0.0555 | 0.0949 | 0.0595 | 0.0568 | 0.0771 |  |  |  | 0.0574 |  | 0.0896 | 0.0781 |

From the supplement of paper PMC12217912
